Results on 87 compounds are retold here after PubChem BioAssay AID1645887 (National Center for Advancing Translational Sciences (NCATS), 2021).

“And” between values parts separate entries of the source, which are not always exact repeats. Equal values may be shown once. Among all 16,000 compounds or so, about 40 (0.2%) were called active. Not shown: some 1% with an inconclusive outcome. Calls follow the shape of the dose curve; as a rule, active = well fitted activation curve with a large enough effect; inconclusive = small, poorly fitted or top-dose-only effect, or another doubt; inactive = no such curve, though single readings can be large or run the other way. The list shows a part of the results.
% is scaled to controls: 0 for no effect and ±100 for the full control effect.

Sequence of UniProt Q8WZA2 (Q8WZA2 whole entry, looked up): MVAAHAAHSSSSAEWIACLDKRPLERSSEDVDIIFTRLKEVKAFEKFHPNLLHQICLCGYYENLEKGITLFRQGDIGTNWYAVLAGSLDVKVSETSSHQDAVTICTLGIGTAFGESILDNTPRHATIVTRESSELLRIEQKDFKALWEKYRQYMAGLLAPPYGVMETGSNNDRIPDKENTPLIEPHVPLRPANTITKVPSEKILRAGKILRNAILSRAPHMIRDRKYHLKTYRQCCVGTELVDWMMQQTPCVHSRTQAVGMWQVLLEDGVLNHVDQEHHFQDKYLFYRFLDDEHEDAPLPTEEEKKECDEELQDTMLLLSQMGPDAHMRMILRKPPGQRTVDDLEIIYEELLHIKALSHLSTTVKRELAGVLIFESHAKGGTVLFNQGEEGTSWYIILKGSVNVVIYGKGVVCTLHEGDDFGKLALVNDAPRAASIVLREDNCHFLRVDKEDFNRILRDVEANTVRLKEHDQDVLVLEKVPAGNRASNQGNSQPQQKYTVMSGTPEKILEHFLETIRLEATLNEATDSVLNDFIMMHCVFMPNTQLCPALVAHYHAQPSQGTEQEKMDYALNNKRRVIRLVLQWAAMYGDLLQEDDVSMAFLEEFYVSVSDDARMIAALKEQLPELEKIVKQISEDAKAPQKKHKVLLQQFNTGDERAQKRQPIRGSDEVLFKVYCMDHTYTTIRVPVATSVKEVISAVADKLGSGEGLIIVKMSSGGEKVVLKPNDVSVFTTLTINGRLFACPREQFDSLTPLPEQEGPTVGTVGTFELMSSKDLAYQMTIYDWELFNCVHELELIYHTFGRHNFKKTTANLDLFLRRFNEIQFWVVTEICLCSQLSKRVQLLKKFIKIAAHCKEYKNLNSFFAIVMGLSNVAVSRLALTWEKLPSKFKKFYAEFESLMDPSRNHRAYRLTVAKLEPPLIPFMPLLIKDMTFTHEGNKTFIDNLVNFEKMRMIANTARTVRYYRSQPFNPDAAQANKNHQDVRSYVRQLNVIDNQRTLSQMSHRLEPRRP

The experiment addresses Rap guanine nucleotide exchange factor 4 (Homo sapiens) (UniProt Q8WZA2). The experiment is described as follows: Validation qHTS for agonist of cAMP-regulated guanine nucleotide exchange factor 4 (EPAC2).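 Also: exchange makes BODIPY-GDP fluorescence drop when released from Rap1B; series mostly up to about 150 µM.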 Particulars: EPAC2 Rap1B BODIPY-GDP exchange, fluorescence; activation: hits give high values. The gist of the method:
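Signal normalized against 6.5 mM cAMP as agonist control. Mix of EPAC2 (100 nM), RAP1B-BODIPY-GDP (250 nM) and GDP (50 uM) was read kinetically at 480/540 nm, every 5 min over 30 min, after 5 min room-temperature incubation with compound.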
(In qHTS, concentration-response curves come from the screen itself.)
Turning to `CCCCCCCCCCC[C@@H](C[C@@H]1OC(=O)[C@H]1CCCCCC)OC(=O)[C@H](CC(C)C)NC=O`, the activation was inactive: -26.7%. As for `NCC1CCC(C(=O)O)CC1` (configuration not stated), the figure is inactive: -1.96% and inactive: 7.53%; as for `COC(=O)[C@@H](Cc1ccccc1)N(Cc1ccccc1)S(=O)(=O)N(Cc1ccccc1)[C@H](Cc1ccccc1)C(=O)OC`, inactive: -11.2%. The same measure for `CC(C)(C)n1nc(-c2ccc(Cl)cc2)c2c(N)ncnc21`: inactive: 5.86%; for `COc1ccc(-c2nc3cnc(N(C)C)nc3n(C3CC3)c2=O)cc1`: inactive: 5.78%. As for `Oc1cn2c(n1)Nc1ccc(Cl)c(Cl)c1C2`, the figure is inactive: -13.8% and inactive: 5.04%. Take `COCCN1CCN(C(=O)c2sc3ncnc(NCC4CCCO4)c3c2C)CC1` (configuration not stated): the activation was inactive: 7.05%. The same measure for `Cc1cc(C)n(-c2cccc(C(=O)NCC3Cc4cccc(-c5ccccn5)c4O3)c2)n1` (configuration not stated): inactive: -2.28%; for `CN(C)C(=O)c1ccc(-c2nc(NCc3cccs3)c3ccccc3n2)cc1`: inactive: -22.7%; for `Nc1nc2c(ncn2[C@@H]2O[C@H](COP(=O)(O)OP(=O)(O)O)[C@@H](O)[C@H]2O)c(=O)[nH]1`: inactive: 7.45%.

As to `COc1ccc2c(c1OC)OCC(c1ccc(OC)c(OC)c1OC)C2` (configuration not stated), the activation is inactive: -15.3%. The same measure for `Cc1ccc2c(c1)CN(CCNC(=O)c1ccc3nc(C)[nH]c3c1)CC(C)O2` (configuration not stated): inactive: 6.81%; for `O=C(CN1Cc2ccccc2OC(c2ccccc2F)C1)NC(c1ccccn1)C(F)(F)F` (configuration not stated): inactive: -18.2%; for `Cc1ccnc2c(Cl)c(Cl)ccc12`: inactive: -19.9%.

Regarding `CCCC[C@H]1COCCS(=O)(=O)N1Cc1ccccc1F`, the activation is inactive: -18.7%.

Consider `COc1cc(C/C=C/c2ccccc2)c(OC)cc1O`, for which the activation is inactive: 3.63%. As for `O=C1O[C@H](CO)[C@@H](O)[C@H](O)[C@H]1O`, the figure is inactive: -6.86%. The same measure for `COc1ccc2c(c1)-c1nc(-n3ncc(C(=O)NCc4cccc(C)n4)c3C3CC3)ncc1CC2`: inactive: -4.74%; for `COc1ccccc1CNc1nc(-c2cccnc2)nc2ccccc12`: inactive: 6.15%. Regarding `S=C(Nc1ccccc1)Nc1nccs1`, the activation was inactive: -47.5%. On to `Cc1c(C(=O)NCc2ccc3c(c2)OCO3)cnn1-c1ncc2c(n1)-c1ccccc1CC2`, for which the activation was inactive: 11.6%. As for `CC(C)(C)OC(=O)N(Cc1ccco1)S(=O)(=O)c1ccccc1Br`, the figure is inactive: -2.2%; as for `N=C(N)N`, inactive: -9.31%; as for `CCOC(=O)C[C@H]1c2ccccc2S(=O)(=O)N1Cc1cccc(C(F)(F)F)c1`, inactive: -20%. As to `C=CC(C)(O)CC/C=C(\C)CCC=C(C)C` (configuration not stated), the activation is inactive: -40.3%. The same measure for `CCN(CC)CCOC(=O)C1(c2ccccc2)CCCC1`: inactive: -10.9%. As for `CC(NC(=O)c1ccco1)c1nnc2n1CCN(Cc1ccc(N(C)C)cc1)CC2` (configuration not stated), the figure is inactive: -4.07%; as for `O=P(O)(O)C(Sc1ccc(Cl)cc1)P(=O)(O)O`, inactive: -0.0579%. As for `O=C1N=C(O)CN1/N=C\c1ccc(-c2ccc([N+](=O)[O-])cc2)o1`, the activation is inactive: -2.1%. The same measure for `N#CCCn1c(=O)cnc2cnc(Oc3ccccc3)nc21`: inactive: -12.4%; for `C=CCCN(Cc1ccccc1)S(=O)(=O)c1cc(Br)ccc1Br`: inactive: -21.9%.

Consider `CCCCCC/C=C\CCCCCCCc1cccc(O)c1C(=O)O`, for which the activation was inactive: -19.8%. The same measure for `CC[C@H]1CN2CCc3cc(OC)c(OC)cc3[C@H]2C[C@@H]1C[C@@H]1NCCc2cc(OC)c(OC)cc21`: inactive: 2.28%; for `O=C(Oc1cc(OC(=O)c2ccccc2)c2c(c1)OC(c1ccc(OC(=O)c3ccccc3)c(OC(=O)c3ccccc3)c1)[C@@H](OC(=O)c1ccccc1)C2)c1ccccc1` (some centres not stated): inactive: -15.7%. The same measure for `COc1ccc(C(=O)N2CCC3(CCN(C(=O)Nc4cccc(F)c4)CC3)CC2)cc1`: inactive: -19.3%.

On to `Cc1c(C(N)=O)cc([N+](=O)[O-])cc1[N+](=O)[O-]`, for which the activation was inactive: -10.8%. Regarding `CCN(CC)C[C@@H]1CCCCN1CC(=O)N1c2ccccc2C(=O)Nc2cccnc21`, the activation is inactive: -8.18%. As for `CN1CCC2(CC1)CCN(C(=O)c1cccc(F)c1)CC2`, the figure is inactive: -8.12%.

Regarding `O=S1(=O)[C@H]2C[C@@H]3C=C[C@@]2(CN1Cc1ccc(Cl)cc1)O3`, the activation was inactive: 0.0863%. The same measure for `CNC(=O)[C@H]1O[C@@H](n2cnc3c(NCc4cccc(I)c4)ncnc32)[C@H](O)[C@@H]1O`: inactive: 6.94% and inactive: -4.99% and inactive: -18.9%.

Regarding `Cc1cccc(CNc2nc(-c3cccc(NS(C)(=O)=O)c3)nc3ccccc23)c1`, the activation was inactive: -7.89%.

As to `C/C=C/C(=O)N(CC)c1ccccc1C`, the activation is inactive: -5.78% and inactive: -11.3%.

On to `O=c1c(-c2ccc(F)c(F)c2)nc2cncnc2n1C1CC1`, for which the activation was inactive: -15.8%. Regarding `COc1ncc2nc(-c3ccc(F)cc3)c(=O)n(CCc3ccccc3)c2n1`, the activation was inactive: -4.88%.

As for `CCOC(=O)C[C@H]1c2cc(C(F)(F)F)ccc2S(=O)(=O)N1C(C)C`, the activation was inactive: -12.9%.

On to `NC(N)=NCCNS(=O)(=O)c1cccc2cnccc12`, for which the activation was inactive: 6.28%. As for `COc1ccc(NC(=O)[C@@H]2CC=C[C@@H]3CCN(Cc4ccc(Cl)c(Cl)c4)C(=O)[C@@H]32)cc1`, the figure is inactive: -5.72%. As for `C=CCN1CCN(c2nc3ccccc3nc2C#N)CC1`, the figure is inactive: -6.13% and inactive: -1.08%; as for `CS(=O)(=O)Nc1cccc(-c2nc(Nc3ccccc3)c3ccccc3n2)c1`, inactive: -10.5%. For the compound `COC(=O)C1N[C@@H]([C@@H](NC(=O)COc2ccccc2)C(=O)NCc2ccsc2)SC1(C)C` (some centres not stated), the activation was inactive: -10.9%. As for `N[C@@H](C(=O)N[C@H]1C(=O)N2C(C(=O)O)=C(Cl)CC[C@H]12)c1ccccc1`, the figure is inactive: -15.3%. For the compound `Cc1cccc(C)c1NC(=O)C1CCCCN1C` (configuration not stated), the activation is inactive: -28.7%. As for `COc1ccc(C2C(=O)c3ccccc3C2=O)cc1`, the figure is inactive: -20.6%; as for `COc1cc2nc(CC(O)c3nc4cc(OC)c(OC)cc4[nH]3)[nH]c2cc1OC` (configuration not stated), inactive: -5.47%; as for `C[C@@H](CN(C)C)CN1c2ccccc2Sc2ccccc21`, inactive: -7.27%. Consider `CN(C)c1ncnc2ccc(-c3ccc4c(c3)OCO4)cc12`, for which the activation is inactive: -11.6%. The same measure for `COc1cc(/C=C/C(=O)N2CCC=CC2=O)cc(OC)c1OC`: inactive: -4.17%; for `CN(C)c1ccc2nc3ccc(=[N+](C)C)cc-3sc2c1`: inactive: -9.56%. The same measure for `O=c1c(CCc2ccccc2)nc2cncnc2n1Cc1ccccc1`: inactive: -0.745%.

For `COc1ccc(OC)c(-c2cc(Cl)c3c(c2)CC(CNC(=O)c2cnn4cccnc24)O3)c1` (configuration not stated), the activation was inactive: -7.05%. The same measure for `Cc1cn([C@H]2C[C@H](F)[C@@H](CO)O2)c(=O)[nH]c1=O`: inactive: -1.45%; for `Cc1nc2cnc(Oc3ccccc3)nc2n(CCc2ccccc2)c1=O`: inactive: -6.52%. As for `Cc1noc(C)c1C(=O)N1CCC[C@@]2(CCN(Cc3ccccc3)C2)C1`, the figure is inactive: -10.5%; as for `Cc1cc(C(=O)NCCc2ccc(S(=O)(=O)NC(=O)NN3CCCCCC3)cc2)no1`, inactive: 7.44%. As for `CN(CCc1ccc(Cl)c(Cl)c1)C[C@@H](O)COc1ccc(NS(C)(=O)=O)cc1`, the figure is inactive: -0.238%. For `C[C@H]1CCC(=O)N([C@H](CC#N)Cc2ccccc2)CC1`, the activation was inactive: -16.7%.

For `COc1cc(OC)c2c(OC)c(-c3ccc4c(c3)OCO4)c(=O)oc2c1`, the activation is inactive: -28.7%. As for `CC(CSC(=O)c1ccccc1)C(=O)N1C[C@@H](Sc2ccccc2)C[C@H]1C(=O)O` (some centres not stated), the figure is inactive: 2.56%; as for `CN1C(C(=O)Nc2ccccn2)=C(O)c2sccc2S1(=O)=O`, inactive: -3.57% and inactive: -13.5%; as for `CC(C)CSc1nnc(CNC(=O)c2ccccn2)n1C`, inactive: -8.29%.

Turning to `O=c1c(CCc2ccccc2)nc2cnc(N3CCOCC3)nc2n1-c1ccccc1`, the activation was inactive: -9.11%. Take `Cc1ccc2[nH]cc(C(O)c3c[nH]c4ccc(C)cc34)c2c1`: the activation is inactive: -2.87%. The same measure for `Cc1noc(C)c1-c1ccc2ncnc(N(C)C)c2c1`: inactive: -10.9%; for `Cc1cnc(-n2ncc(C(=O)N3CCN(C(C)C)CC3)c2-c2ccco2)nc1-c1ccc(F)cc1`: inactive: -3.63%; for `C[Se]CCC(N)C(=O)O` (configuration not stated): inactive: -9.64%.

Take `CN1CCN(c2ncncc2-c2ccc(C(=O)N(C)C)cc2)CC1`: the activation is inactive: -10.3%. With `CC12CC[C@@](C(=O)O)(C(=O)C1=O)C2(C)C`, the activation was inactive: -2.46%.

Consider `CC(=O)c1ccc(-c2ccc3c4c(ccc3c2)OC(CNC(=O)[C@@H]2CCCN2C(C)=O)C4)s1` (some centres not stated), for which the activation is inactive: -9.51%. As for `Cc1ccc(O)c2ncccc12`, the figure is inactive: -17.8%; as for `COc1ccc(S(=O)(=O)Nc2nnc(CC(C)C)s2)cc1`, inactive: 5.9% and inactive: 4.88%; as for `CC1(C)S[C@H]2[C@@H](NC(=O)C(N)c3ccccc3)C(=O)N2[C@H]1C(=O)O` (some centres not stated), inactive: -20.4%. In the case of `O=S(=O)(c1ccccc1)N1CCC[C@@]2(CCN(Cc3ccccc3)C2)C1`, the activation was inactive: -0.125%. As for `Cc1cc(C)n(-c2cccc(C(=O)NCC3Cc4cc(Cl)cc(-c5cnccn5)c4O3)c2)n1` (configuration not stated), the figure is inactive: 3.01%; as for `CCN1CCN(C(=O)c2cnn(-c3ncc4c(n3)-c3ccccc3CCC4)c2COC)CC1`, inactive: -5.13%; as for `C=C1c2c(Cl)ccc(O)c2C(O)=C2C(=O)[C@]3(O)C(O)=C(C(N)=O)C(=O)C(N(C)C)C3C(O)C12` (some centres not stated), inactive: -11.1%.

On to `Cc1cc(O)c2c(c1O)C(=O)C(O)=C(O)C2=O`, for which the activation was inactive: -12.3%. The same measure for `Cn1c(=O)c(-c2cc(F)cc(F)c2)nc2cnc(Oc3cccc(Cl)c3)nc21`: inactive: 10.1%.
